Measured values reported in PubChem BioAssay AID1745853 (National Center for Advancing Translational Sciences (NCATS), 2022).
Some of the results follow. The main result of the screen is listed elsewhere. These columns were measured beside it and carry no call.

Key:
Experiment in all cases: Primary Screen for Target Class Profiling of Small Molecule Inhibitors of Methyltransferases
[1] = target: Glycine N-methyltransferase (Homo sapiens) (UniProt Q14749); settings: purified enzyme, MTase-Glo SAH luminescence; measured here: GNMT inhibition; at 40 µM; stronger effect = lower value
Excerpt: (§1) PI: Matthew D. Hall Ph.D. and Quinlin M. Hanson Ph.D.
(§2) National Center for Advancing Translational Sciences (NCATS)
(§3) National Institute of Health (NIH), Rockville, MD
(§4) Target class profiling (TCP) is a chemical biology approach amenable to investigating understudied biological targets. TCP is achieved by developing a generalizable assay platform and applying it to screen a curated set of compound libraries against representative members of a target class. Small molecule methyltransferases (SMMTase) are a subclass of methyltransferase that act on metabolites to modulate signaling pathways, metabolize xenobiotics, or balance the available methyl pool. We screened four curated libraries totaling 27,574 unique compounds against the SMMTases nicotinamide N-methyltransferase (NNMT), phenylethanolamine N-methyltransferase (PNMT), histamine N-methyltransferase (HNMT), glycine N-methyltransferase (GNMT), catechol O-methyltransferase (COMT), and guanidinoacetate N-methyltransferase (GAMT). The data generated by this TCP can be leveraged for informed tool molecule development. For example, in the associated publication we identified a chemotype of HNMT-selective inhibitors. Additionally, we identified a putative SMMTase-selective inhibitor with potential as a tool molecule for studying broader methyltransferase biology.
(§5) High-through put screening assays were developed at the National Center for Advancing Translational Science (NCATS) for the enzymes NNMT, PNMT, HNMT, GNMT, COMT, and GAMT. Enzymatic activity was measured as a function of SAM cofactor conversion using the MTase Glo kit (Promega) for all enzymes. All assays were performed in 1536-well format with substrates and SAM concentrations at KM values. Enzyme concentration and assay timing were optimized for 10-20% SAM conversion. Initial screening of 27,574 compounds was done as single-point assays using the highest compound concentration (40 uM). […] These compounds were replated in 11-point dose response and assayed against NNMT, PNMT, HNMT, GNMT, COMT, GAMT, and a counter-assay. The IC50 and efficacy (maximal response) values were determined for each dose-response curve. These values are also accounted for in the area under the curve (AUC) values.
(§6) PROTOCOL TABLE (as described by Inglese J, Shamu CE and Guy RK. 2007)
(§7) SEQUENCE No. (e.g., 1, 2, 3, etc.); […] (e.g., Cells, Incubation, Reagent, etc.); VALUE; DESCRIPTION.
(§8) 1; Reagent; 2 uL; SMMTase Enzyme (2x) in reaction buffer, columns 1- 48.
(§9) 2; Reagent; 1 uL; SAM (4x) in reaction buffer, columns 1-48.
(§10) 3; Controls; 23 nL; DMSO in column 4; sinefungin in DMSO (0 uM - 40 uM) in 7-point 1:2 dilution series (n = 2) in column 2.
(§11) 4; Compounds; 23 nL; Columns 5-48.
(§12) 5; Reagent; 1 uL; Substrate (4x) in reaction buffer, columns 2-48.
(§13) 6; Time; 20-30 min; Incubation.
(§14) 7; Reagent; 1 uL; MTase-Glo reagent (5X), columns 1-48.
(§15) 8; Time; 30 min; Incubation.
(§16) 9; Reagent; 5 uL; MTase-Glo Detection reagent, columns 1-48.
(§17) 10; Time; 30 min; Incubation, luminescence evolution.
(§18) 11; Detection; Luminescence; ViewLux uHTS Microplate Imager (PerkinElmer).
(§19) NOTES (numbers refer to Sequence numbers above)
(§20) 1, 2, 5. White Medium Binding Greiner 1536-well plates (Cat #789175-F, Greiner Bio-One, Monroe, NC); Reaction buffer: 50 mM Tris, pH 8.0, 3 mM MgCl2, 1 mM EDTA, 50 mM NaCl, 1 mM DTT, and 0.1 mg/mL BSA. Evaporation was prevented by covering assay plates with metal lids containing holes to allow gas diffusion.
(§21) 1. Six SMMTase were profiled: HNMT, GNMT, PNMT, COMT, NNMT, GAMT
(§22) 5. The corresponding substrate was used for each enzyme: HNMT - 5.3 uM Histamine; GNMT - >500 uM Glycine; PNMT - 16.2 uM Norephinephrine; COMT - 13.7 uM Norephinephrine; NNMT - 3.8 uM Nicotinamide; GAMT - 2.5 uM Guanidinoacetate.6, 8, 10. Room temperature
(§23) 6. Final reaction conditions: 10 nM COMT, 5 uM SAM, 15 uM norepinephrine, 50 mM Tris, pH 8.0, 3 mM MgCl2, 1 mM EDTA, 50 mM NaCl, 1 mM DTT, and 0.1 mg/mL BSA; refer to tables 2 and S1 for specific timing.
8. […]

[2] = target: Guanidinoacetate N-methyltransferase (Homo sapiens) (UniProt Q14353); settings: purified enzyme, MTase-Glo SAH luminescence; measured here: GAMT inhibition; at 40 µM; stronger effect = lower value
Excerpt: as §1, §2, §3, §4, §5, §6, §7, §8, §9, §10, §11, §12, §13, §14, §15, §16, §17, §18, §19, §20, §21, §22, §23
8. […]

[3] = target: Histamine N-methyltransferase (Homo sapiens) (UniProt P50135); settings: purified enzyme, MTase-Glo SAH luminescence; measured here: HNMT inhibition; at 40 µM; stronger effect = lower value
Excerpt: as §1, §2, §3, §4, §5, §6, §7, §8, §9, §10, §11, §12, §13, §14, §15, §16, §17, §18, §19, §20, §21, §22, §23
8. […]

[4] = target: Nicotinamide N-methyltransferase (Homo sapiens) (UniProt P40261); settings: purified enzyme, MTase-Glo SAH luminescence; measured here: NNMT inhibition; at 40 µM; stronger effect = lower value
Excerpt: as §1, §2, §3, §4, §5, §6, §7, §8, §9, §10, §11, §12, §13, §14, §15, §16, §17, §18, §19, §20, §21, §22, §23
8. […]

[5] = target: Phenylethanolamine N-methyltransferase (Homo sapiens) (UniProt P11086); settings: purified enzyme, MTase-Glo SAH luminescence; measured here: PNMT inhibition; at 40 µM; stronger effect = lower value
Excerpt: as §1, §2, §3, §4, §5, §6, §7, §8, §9, §10, §11, §12, §13, §14, §15, §16, §17, §18, §19, §20, §21, §22, §23
8. […]
On the % scale 0 is the no-effect control and ±100 the full control effect.

SMILES | activity change, negative = inhibition [1] [%] | activity change, negative = inhibition [2] [%] | activity change, negative = inhibition [3] [%] | activity change, negative = inhibition [4] [%] | activity change, negative = inhibition [5] [%]
COc1ccccc1OC1CCN(Cc2ccccc2C#N)CC1 | -4.57 | -2.33 | -4.6 | -4.68 | -5.94
CC(C(=O)NCc1cccc(Br)c1)n1ccc2cc(S(=O)(=O)N3CCCC3)ccc21 (stereo not given) | -2.23 | -2.69 | -0.491 | -12.5 | -20.4
O=C(NCC1CCC(=O)N(Cc2ccccc2)CC1)C1CCCCC1 (stereo not given) | -4.87 | -6.68 | -2.54 | -10.2 | 6.19
CC1CCC2(OC1)OC1CC3C4CC=C5CC(O)CC(O[C@@H]6OC[C@@H](O)[C@H](O)[C@H]6O)C5(C)C4CCC3(C)C1(O)C2C (stereo not given in full) | -0.406 | -3.53 | -0.675 | -15.9 | 0.395
Cn1nc(C2CCCC2)cc1N[S+](=O)([O-])c1ccccc1 | -0.434 | -2.28 | -0.275 | -4.64 | 2.7
CN(C)S(=O)(=O)N1CCC(Oc2ccc(C(=O)NCCc3ccncc3)cc2)CC1 | -5.01 | -7.33 | -1.37 | -12.7 | -9.39
Cc1cc(Nc2ncnc3ccc(-c4ccc(CNCCS(C)(=O)=O)o4)cc23)ccc1Oc1ccn2ncnc2c1 | -27.7 | -7.58 | -36.1 | -27.6 | -10
CCCCN1C(=O)c2cc(C(=O)NCCc3c[nH]c4ccccc34)nn2CC1(C)C(=O)NC1CCCC1 (stereo not given) | 6.08 | 0 | -8.62 | 1.14 | 5.01
CC(C)CCN1C(=O)c2ccc(-c3ccccc3)n2CC1(C)C(=O)NC1CCCCCC1 (stereo not given) | 3.04 | 4.47 | 0.436 | -0.215 | -0.52
COC1CCN(c2cccc(-c3cc(NC(C)=O)nc(-n4nc(C)cc4C)n3)n2)CC1 | -33.3 | 8.73 | -15.4 | -15.6 | -3.48
COCCN1C(=O)CC[C@]2(C(=O)NCc3cccs3)CCCC[C@@H]12 | -0.369 | -4.04 | 0.336 | -1.45 | -1.95
COc1ccc(CN2C(=O)c3ccc(-c4ccco4)n3CC2(C)C(=O)NC2CCCCC2)c(OC)c1OC (stereo not given) | -7.06 | 4.05 | -4.21 | -3.21 | -1.78
C[S+](=O)([O-])N1CC2(CCCCN2Cc2ccccn2)Cc2ccccc21 (stereo not given) | -7.44 | -6.15 | -4.78 | -10.8 | 2.93
Cc1ncc(NC(=O)c2ccc(CN3CCN(C)CC3)c(C(F)(F)F)c2)cc1Nc1nccc(-c2cccnc2)n1 | -1.13 | 23.7 | -2.17 | 7.03 | 3.9
Cc1ccc(Cn2nc3n(Cc4ccccc4)c(=O)c4ccc(C(=O)NC(C)C)cc4n3c2=O)cc1 | 6.6 | 0 | 6.73 | 8.35 | 5.96
CCC(C)NC(=O)c1ccc2c(=O)n(C)c3nnc(SCC(=O)Nc4ccc(F)cc4)n3c2c1 (stereo not given) | -0.434 | 4.48 | -1.22 | 1.52 | 1.9
CCCn1c(=O)c2cc(Cl)ccc2n2c(SCC(=O)Nc3cc(OC)cc(OC)c3)nnc12 | 7.36 | 0 | 10.6 | 0.709 | 9.98
CC1(C(=O)NC2CCCCC2)Cn2c(cc3sccc32)C(=O)N1Cc1ccccc1F (stereo not given) | -0.882 | 0.378 | 2.43 | -0.905 | 2.58
COc1ccccc1CCNC(=O)c1cc2n(n1)CC(C)(C(=O)NC1CCCCCC1)N(C)C2=O (stereo not given) | 3.54 | 0 | 4.09 | 1.16 | 3.38
CN1C(=O)c2cc(C(=O)NCCCN3CCCCC3)nn2CC1(C)C(=O)NC1CCCCCC1 (stereo not given) | 2.08 | 2.33 | -2.77 | 2 | -0.502
